In PubChem BioAssay (NCI):
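Assay format: 96-well plates, 48-hour exposure. Here, GI50 denotes the concentration required for 50% inhibition of growth. TGI: concentration producing complete growth inhibition.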

System: NCI-H322M lung
Experiment: NCI anticancer screen, dose series, 48 h

`CCOc1ccccc1NC(=O)N/C(N)=N/c1nc2ccccc2s1` was tested, and the GI50 was 0.0466 µM and the TGI was greater than 85.9 µM.
